# Results: PubChem BioAssay AID1345082 (National Center for Advancing Translational Sciences (NCATS), 2018)
# Screen size: about 94,000 compounds; about 4,000 (4.3%) were called active. The inconclusive results got no clear call from the source; some entries with a clear call stand among them for comparison. Calls follow the shape of the dose curve; as a rule, active = well fitted inhibition curve with a large enough effect; inconclusive = small, poorly fitted or top-dose-only effect; inactive = no such curve, though single readings can be large or run the other way. A potency beside an inconclusive call is a rough fit, not a confirmed value.
# Experiment: Cytotoxic Profiling in NIH 3T3 Cell Line of Diverse Libraries Using Quantitative High-Throughput Screening; also: nearly all actives have a fitted effect of over 55% in size
# Conditions: NIH 3T3 viability, CellTiter-Glo ATP luminescence, 48-72 h; series mostly up to 96.7 µM
# Method in brief: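 Cytotoxicity was measured by CellTiter-Glo ATP luminescence after 48 or 72 h compound exposure at 37 °C. Mouse NIH 3T3 fibroblasts were seeded at 400 cells/well and dosed by 23 nL pin transfer.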
# Potency is read from the fitted curve at half-maximal effect; tags tell the direction and shape of the fitted curve.
row,Compound,Potency
1,COC(=O)CC[C@H]1CNC(=O)[C@@H]2[C@@H](CCN2Cc2ccc(C(F)(F)F)cc2)N1C,inactive
2,COC(=O)[C@@H]1Cc2c([nH]c3ccccc23)[C@H]2C[C@@H](NCc3ccccc3)C[C@@H](c3ccccc3F)N21,active: 25.1 µM
3,CCc1noc(-c2cn(C3CCN(C(=O)c4cccc(F)c4)C3)nn2)n1 (centres undefined),"inconclusive: 44.7 µM [inhibitor, partial curve, poor fit]"
4,COC(=O)C1=C(C)N(Cc2cccc(Cl)c2)C(=O)CC1c1ccccc1Cl (centres undefined),"inconclusive: 44.7 µM [inhibitor, partial curve, poor fit]"
5,CCCC(=O)N1CCc2cc(S(=O)(=O)NC(C)c3ccccc3)ccc2C1 (centres undefined),"inconclusive: 89.1 µM [inhibitor, single point]"
6,CCN(CC)c1ccc(C(=O)NCc2nnc3cc(-c4nc(C5CC5)no4)ccn23)cc1,"inconclusive: 3.55 µM [inhibitor, full curve, poor fit]"
7,Cc1cccc(OCCc2noc(C3CCN(C(=O)c4n[nH]c(=O)c5ccccc45)C3)n2)c1 (centres undefined),"inconclusive: 44.7 µM [inhibitor, partial curve]"
8,CCNC(=O)CCc1c(CC)nn(-c2ccc(OC)cc2)c1Oc1cccc(F)c1,"inconclusive: 25.1 µM [inhibitor, full curve]"
9,COc1cccc(CN2CCC3(CC2)NCCc2c3[nH]c3ccccc23)c1,active: 35.5 µM
10,COc1ccccc1NC(=O)Cn1c(N(C)Cc2ccccc2)nc(C)cc1=O,"inconclusive: 44.7 µM [inhibitor, partial curve, poor fit]"
11,CCc1ccccc1S(=O)(=O)N1CCN(C2CCN(CCC(C)C)C2=O)CC1 (centres undefined),"inconclusive: 50.1 µM [inhibitor, partial curve, poor fit]"
12,Cc1ccc(C)c(C(=O)N2CCN(c3cc(-c4ccccc4)[nH]n3)CC2)c1,"inconclusive: 44.7 µM [inhibitor, partial curve, poor fit]"
13,COc1ccc(-c2ccc3c(n2)CN(CCOc2ccccc2)C(=O)CO3)cc1F,"inconclusive: 89.1 µM [inhibitor, partial curve, poor fit]"
14,Cc1csc(Nc2ccc3c(n2)CN(Cc2ccc(F)cc2)C(=O)CO3)n1,"inconclusive: 10 µM [inhibitor, full curve, poor fit]"
15,CN(C)C(=O)c1ccc(-c2cc3c(cn2)CN(CCc2ccccc2)CCN3)cc1,"inconclusive: 89.1 µM [inhibitor, partial curve]"
16,Cc1ccc(C(=O)NC2CCCN(c3cc(-c4ccc(F)cc4)[nH]n3)C2)cc1 (centres undefined),"inconclusive: 70.8 µM [inhibitor, partial curve, poor fit]"
17,CN1CCC(Cc2ccc(C(=O)O)cc2)CC1,inactive
18,O=C(c1cn(CCCc2ccccc2)nn1)N1CCCC(c2ccccc2)CC1 (centres undefined),"inconclusive: 79.4 µM [inhibitor, partial curve, poor fit]"
19,COc1ccccc1CN1CC[C@H](c2nc3ccc(C(F)(F)F)cc3[nH]2)C1,active: 28.2 µM
20,O=C(NC1CCOC1)c1ccc2oc(-c3ccc(C(F)(F)F)cc3)nc2c1 (centres undefined),inactive
21,CN(CC1CCCN(CCc2cccc(C(F)(F)F)c2)C1)C(=O)c1ccc2[nH]ccc2c1 (centres undefined),"inconclusive: 79.4 µM [inhibitor, partial curve, poor fit]"
22,CS(=O)(=O)c1ccc(O[C@H]2COCCN(c3nc4ccccc4s3)C2)cc1,"inconclusive: 70.8 µM [inhibitor, partial curve, poor fit]"

row,Compound,Potency
1,CC1(c2ccccc2)N(Cc2ccc(O)cc2)C(=O)OC12CCN(Cc1c[nH]c3ccccc13)CC2 (centres undefined),active: 10 µM
2,COc1ccc(N2CCN(C(=O)C3(CCO)CC34CCOCC4)CC2)cc1 (centres undefined),inactive
3,CNC(=O)c1cc(C2CC2)nc2onc(C3CCN(C(=O)c4cccc(C(F)(F)F)c4)CC3)c12,"inconclusive: 44.7 µM [inhibitor, partial curve]"
4,O=C(NC1CCCCCCC1)C1CCN(C(=O)c2ncn3c2COC(c2ccccc2)C3)CC1 (centres undefined),inactive
5,CNC(=O)c1cc2cc(-c3c(C)noc3C)nc(-c3cnn(C)c3)c2o1,"inconclusive: 14.1 µM [inhibitor, full curve, poor fit]"
6,COc1cccc(CN2CCCCCCN(C)C(=O)[C@@H]3CCC[C@@H]32)n1,"inconclusive: 70.8 µM [inhibitor, single point]"
7,O=C(c1ccccn1)N1CCC2(CC1)CC(Cc1ccccc1)CCO2 (centres undefined),"inconclusive: 50.1 µM [inhibitor, partial curve, poor fit]"
8,Cc1ccsc1CN1CCCC(c2nc(-c3cccnc3)no2)CCNC(=O)CC1 (centres undefined),"inconclusive: 44.7 µM [inhibitor, partial curve, poor fit]"
9,O=C1Nc2ccccc2CN(Cc2ccccc2)C12CCNC2 (centres undefined),active: 89.1 µM
10,Cn1nc(C(=O)N2C[C@@H](Oc3cccnc3)C[C@H]2C(=O)N2CCOCC2)c2ccccc21,"inconclusive: 44.7 µM [inhibitor, partial curve, poor fit]"
11,O=C(NCCc1ccc(Cl)cc1)c1nc2sccn2c1-c1ccc(C(F)(F)F)cc1,active: 20 µM
12,CC(=O)N1Cc2ccccc2CC2(CCCCN2CC2CCOCC2)C1 (centres undefined),inactive
13,CN(C)CCNC(=O)c1nc2nc(-c3ccccc3)c(-c3ccccc3F)cc2n1C,active: 35.5 µM
14,COc1ccccc1-c1cccc(C(=O)N2CCC[C@H]2C(=O)N2CCN(C(C)=O)CC2)c1,inactive
15,O=C(c1cccc(Cl)c1)N1CCC2(CC1)CC(=O)N(c1ccccc1)c1ccccc1O2,"inconclusive: 50.1 µM [inhibitor, partial curve, poor fit]"
16,CNc1nc2c(s1)C(c1ccccc1F)CC(=O)N2 (centres undefined),inactive
17,Cc1nn(-c2ccc(C(F)(F)F)cc2)c(C)c1[C@@H]1C=C[C@@H](NC(=O)Nc2cccc(C#N)c2)C1,active: 25.1 µM
18,COc1cc(NC(=O)NC[C@H]2O[C@@H](CO)[C@@H](O)[C@H]2N2CCCCC2)cc(OC)c1,inactive
19,O=C(NCc1ccc(F)cc1)c1nc2sccn2c1-c1ccc(F)cc1,"inconclusive: 50.1 µM [inhibitor, partial curve, poor fit]"
20,NCCCC(=O)N1CCC2(CC1)CN([S+](=O)([O-])c1ccccc1)CCO2,"inconclusive: 70.8 µM [inhibitor, single point]"
21,COCCNc1ccc2nnc(-c3ccccn3)n2n1,"inconclusive: 112 µM [inhibitor, partial curve, poor fit]"
22,Cn1ncc2c(C(=O)NCC#N)cc(-c3ccc(F)cc3)nc21,active: 35.5 µM

row,Compound,Potency
1,Cc1ccc(CN2CCC3(CC2)Cc2ccccc2CNC3=O)cc1,"inconclusive: 79.4 µM [inhibitor, partial curve, poor fit]"
2,Cc1ccc(CNC[C@H]2O[C@H](Cc3cc(CN(C)Cc4ccccc4)on3)CC[C@@H]2O)cc1,"inconclusive: 50.1 µM [inhibitor, partial curve, poor fit]"
3,Cc1nc(C)c(C(=O)N2CCc3onc(-c4cccc(F)c4)c3C2)s1,"inconclusive: 50.1 µM [inhibitor, partial curve]"
4,COc1ccc(CN2CCC(O)(c3csc(CN4CCc5ccccc5C4)n3)CC2)cc1,"inconclusive: 50.1 µM [inhibitor, partial curve, poor fit]"
5,Cc1ccc(NC(=O)CN2C(=O)NC(c3ccc(Cl)cc3)C3=C2COC3=O)cc1 (centres undefined),"inconclusive: 39.8 µM [inhibitor, partial curve]"
6,CC(=O)Nc1ccc(CN2CCn3c(nn(-c4ccc(Cl)cc4)c3=O)C2)cc1,"inconclusive: 11.2 µM [inhibitor, full curve]"
7,COc1ccccc1-c1ccnc(-c2nnc(C)n2Cc2ccncc2)c1,active: 56.2 µM
8,O=C1Nc2ccccc2CC12CCN2Cc1ccccc1C(F)(F)F (centres undefined),"inconclusive: 100 µM [inhibitor, partial curve, poor fit]"
9,Cn1nc(-c2cccc(F)c2)c(N2CCCCC2)c1NC(=O)Nc1ccccc1,active: 28.2 µM
10,Cc1ccc(C(=O)N2CCCC2C(=O)N2CCC(c3ccccc3)CC2)cc1 (centres undefined),"inconclusive: 50.1 µM [inhibitor, partial curve, poor fit]"
11,CC1(C)C[C@H](NC2CCOCC2)[C@@]2(CCC(=O)N3CCOCC3)CC[C@](C)(O)C[C@@H]12,inactive
12,O=C(NCc1ccccc1)NC[C@H]1Cn2c(-c3ccc(Cl)cc3)cnc2CO1,"inconclusive: 89.1 µM [inhibitor, partial curve, poor fit]"
13,CC(C)C[C@@H]1N[C@H](C(=O)N2CCC(NC(=O)c3ccccc3)CC2)Cc2c[nH]c3cccc1c23,inactive
14,CCC(=O)N(C1CCOCC1)C1CCN(S(=O)(=O)c2ccc3c(c2)CCCC3)CC1,"inconclusive: 31.6 µM [inhibitor, partial curve, poor fit]"
15,CN(Cc1ccc2nonc2c1)Cc1cn(-c2ccccc2)nn1,inactive
16,COc1ccc(CCC(=O)N2CCC3(CC2)CCC(O)(CN(C)C)CC3)cc1,inactive
17,Cc1ccccc1[C@@H]1CN(C(=O)CCC(=O)NC2CCCC2)C[C@H]1C(=O)O,inactive
18,Cc1ccc(CNC(=O)c2ccc(NC(=O)c3cc4c(=O)[nH]c(C)cn4n3)cc2)cc1,inactive
19,CCOCCNC(=O)C1(c2ccc(Cl)cc2)CCOCC1,inactive
20,O=C(c1cccc(Cl)c1)N1CCN(c2cc(-c3ccccc3)[nH]n2)CC1,"inconclusive: 39.8 µM [inhibitor, partial curve]"
